The values below come from the supplement of paper PMC9446081.

SMILES strings stand for the structures. Among all 39,000 compounds or so, about 220 (0.56%) showed activity. The list shows a part of the results.
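Note: static incubation at 37 °C against the wild-type strain, values averaged over two biological replicates.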

The assay deals with Escherichia coli K-12 BW25113. Description: relative growth (OD600 normalised to plate interquartile mean) (fraction); higher = less growth inhibition, active = 0.2 or less. The conditions noted are these: 50 µM; LB; incubation time: overnight (16-24 h).
As to `C[C@H](CO)N1C[C@H](C)[C@H](CN(C)S(=O)(=O)c2cccs2)Oc2ccc(NS(=O)(=O)c3cccs3)cc2CC1=O`, the relative growth was inactive: 0.995.
The value for `C[C@@H]1CCCCO[C@@H](CN(C)Cc2ccc3c(c2)OCO3)[C@@H](C)CN([C@H](C)CO)C(=O)c2cc(NC(=O)Cc3ccccc3)ccc2O1` was inactive: 0.993.
On to `O=C(CCCCCNC(=O)OCCCCO[C@@H]1C[C@H](c2ccc3c(c2)OCO3)C=C(C(=O)N2CCOCC2)O1)NO`, for which the relative growth is inactive: 0.997.
The value for `C[C@@H]1CN([C@H](C)CO)C(=O)Cc2cc(NC(=O)c3ccncc3)ccc2O[C@H]1CN(C)C(=O)NC1CCCCC1` was inactive: 0.956; that for `C[C@H](CO)N1C[C@H](C)[C@H](CN(C)Cc2ccc(C(F)(F)F)cc2)Oc2ccc(NC(=O)Nc3ccc4c(c3)OCO4)cc2C1=O` was inactive: 0.997.
Consider `C[C@H](CO)N1C[C@H](C)[C@@H](CN(C)S(=O)(=O)c2cccs2)Oc2ccc(NS(=O)(=O)c3cccs3)cc2C1=O`, for which the relative growth was inactive: 0.985.
For `C[C@@H]1CCCCO[C@H](CN(C)Cc2ccccc2)[C@@H](C)CN([C@@H](C)CO)C(=O)c2cc(NC(=O)Nc3cccc4ccccc34)ccc2O1`, the relative growth is inactive: 1.04.
With `C[C@@H]1CN([C@@H](C)CO)C(=O)c2cc(C#CC3(O)CCCC3)cnc2O[C@H]1CN(C)C(=O)Cc1ccncc1`, the relative growth was inactive: 1.01.
For `Cc1noc(C)c1S(=O)(=O)Nc1cccc2c1O[C@@H](CN(C)S(C)(=O)=O)[C@@H](C)CN([C@H](C)CO)C2=O`, the relative growth is inactive: 0.996.
The value for `C[C@H](CO)N1C[C@H](C)[C@@H](CN(C)C(=O)C2CCOCC2)Oc2cc(C3=CCCC3)ccc2S1(=O)=O` was inactive: 0.992; that for `O=C(C[C@@H]1C=C[C@@H](NC(=O)C2CC2)[C@H](CO)O1)NCCCN1CCOCC1` was inactive: 0.969; that for `C[C@H](CO)N1C[C@H](C)[C@H](CN(C)C(=O)NC2CCCCC2)OCCCC[C@H](C)Oc2ccc(NS(=O)(=O)c3ccccc3)cc2C1=O` was inactive: 1.03.
The value for `CC(C)C#Cc1ccc2c(c1)O[C@H](CN(C)C(=O)Cc1ccccn1)[C@@H](C)CN([C@H](C)CO)S2(=O)=O` was inactive: 1.04; that for `CC(C)COCC(CN(Cc1ccccc1)c1ccccc1)N1CCCC1.Cl` (stereo not drawn) was inactive: 1; that for `C[C@H]1CN([C@@H](C)CO)C(=O)c2c(c3ccccc3n2C)-c2ccccc2CO[C@@H]1CN(C)Cc1ccc2c(c1)OCO2` was inactive: 0.972.
With `CC[C@@H](CO)NCCN[C@@H](CC)CO`, the relative growth is inactive: 0.969.
Take `Cn1cnc(S(=O)(=O)N2C[C@H](O)COC[C@H]3O[C@H](CC(=O)NCc4cc(F)cc(F)c4)CC[C@@H]32)c1`: the relative growth was inactive: 1.02.
As to `CC(=O)N(C)C[C@H]1Oc2ncc(C#CC(C)(C)O)cc2C(=O)N([C@H](C)CO)C[C@@H]1C`, the relative growth was inactive: 0.982.
The value for `CCS(=O)(=O)Nc1ccc2c(c1)C(=O)N(C)[C@H]1CC[C@H](CC(=O)NCc3ccc(OC)cc3)O[C@H]1CO2` was inactive: 1; that for `C[C@@H]1CCCCO[C@H](CN(C)C(=O)Nc2ccc3c(c2)OCO3)[C@H](C)CN([C@H](C)CO)C(=O)c2cc(NC(=O)c3ccncc3)ccc2O1` was inactive: 0.996.
Regarding `COc1cc2c(cc1OC)CN(CCc1ccc(-n3nnc(-c4cc(OC)c(OC)cc4NC(=O)c4cc(=O)c5ccccc5o4)n3)cc1)CC2`, the relative growth was inactive: 1.02.
Take `C[C@H](CO)N1C[C@H](C)[C@@H](CN(C)C(=O)c2ccccc2)OCCCC[C@H](C)Oc2ccc(NC(=O)Nc3ccc(C(F)(F)F)cc3)cc2C1=O`: the relative growth is inactive: 1.01.
With `C[C@H]1CCCCO[C@H](CN(C)C(=O)c2ccccc2)[C@@H](C)CN([C@@H](C)CO)C(=O)c2cc(NC(=O)C3CCCCC3)ccc2O1`, the relative growth is inactive: 0.989.
To `C[C@@H]1CCCCO[C@H](CN(C)C(=O)Nc2ccc3c(c2)OCO3)[C@H](C)CN([C@@H](C)CO)C(=O)c2cc(NC(=O)Cc3ccccc3)ccc2O1` belongs inactive: 1.07; to `COc1ccc(-n2c(N)cc(=O)[nH]c2=O)cc1`, inactive: 1.03.
With `C[C@@H]1CCCCO[C@H](CN(C)C(=O)Nc2ccccc2)[C@H](C)CN([C@H](C)CO)C(=O)c2cc(NC(=O)NC3CCCCC3)ccc2O1`, the relative growth is inactive: 1.03.
The value for `CC(C)NC(=O)N(C)C[C@H]1Oc2ccc(NC(=O)Cc3ccccc3)cc2CC(=O)N([C@H](C)CO)C[C@H]1C` was inactive: 0.983; that for `O=C(C[C@@H]1C[C@H]2c3cc(NS(=O)(=O)c4ccc(F)cc4)ccc3O[C@H]2[C@@H](CO)O1)NCCc1ccccc1` was inactive: 0.998.
To `COCCN1C(=O)C2=C(C1=O)[C@H]1N(C)c3ccccc3[C@@]13C[C@@H](CO)N(C(C)=O)C3=N2` belongs inactive: 0.994.
To `COc1ccccc1NC(=O)N(C)C[C@H]1OCc2ccccc2-c2c(n(C)c3ccccc23)C(=O)N([C@H](C)CO)C[C@@H]1C` belongs inactive: 1.03; to `CCS(=O)(=O)Nc1ccc2c(c1)C(=O)N(C)C[C@@H](OC)[C@H](C)CN(CCC(F)(F)F)[C@H](C)CO2`, inactive: 0.985.
On to `COc1ccc(NC(=O)Nc2ccc3c(c2)C(=O)N([C@H](C)CO)C[C@@H](C)[C@@H](CN(C)Cc2ccc(Oc4ccccc4)cc2)O3)cc1`, for which the relative growth is inactive: 1.01.
In the case of `C[C@H](CO)N1C[C@H](C)[C@H](CN(C)C(=O)Nc2ccc(C(F)(F)F)cc2)Oc2ccc(NC(=O)CCCCCC(=O)Nc3ccccc3N)cc2CC1=O`, the relative growth was inactive: 0.992.
Take `Cc1ccc(S(=O)(=O)N(C)C[C@@H]2Oc3ccc(NC(=O)Nc4cccc5ccccc45)cc3C(=O)N([C@H](C)CO)C[C@H]2C)cc1`: the relative growth was inactive: 1.01.
On to `C[C@H](CO)N1C[C@H](C)[C@@H](CN(C)C)OCCCC[C@H](C)Oc2ccc(NS(=O)(=O)c3cn(C)cn3)cc2C1=O`, for which the relative growth was inactive: 0.984.
In the case of `Cn1c(=O)c2cn3ncccc3c2n(C)c1=O`, the relative growth is inactive: 0.974.
`C[C@@H]1CN([C@@H](C)CO)S(=O)(=O)c2ccc(C#Cc3ccccc3)cc2O[C@H]1CN(C)S(C)(=O)=O`: the relative growth was inactive: 1.02.
The value for `Cc1ccc(S(=O)(=O)N(C)C[C@H]2Oc3ncc(Br)cc3C(=O)N([C@@H](C)CO)C[C@@H]2C)cc1` was inactive: 0.982; that for `O=C(Nc1ccc2c(c1)[C@@H]1C[C@@H](CC(=O)N3CCc4ccccc4C3)O[C@@H](CO)[C@@H]1O2)C1CCOCC1` was inactive: 1.
For the compound `CO[C@@H](CN(C)C(=O)c1ccc2c(c1)OCO2)[C@H](C)CN([C@@H](C)CO)S(=O)(=O)c1ccc(F)cc1`, the relative growth was inactive: 0.887.
To `COc1cccc(S(=O)(=O)N(C)C[C@H]2Oc3cc(C#CCN(C)C)ccc3S(=O)(=O)N([C@@H](C)CO)C[C@@H]2C)c1` belongs inactive: 1.01; to `C[C@H]1CCCCO[C@H](CN(C)S(=O)(=O)c2ccccc2)[C@@H](C)CN([C@@H](C)CO)C(=O)c2cc(NS(C)(=O)=O)ccc2O1`, inactive: 1.02; to `C[C@@H]1CN([C@@H](C)CO)C(=O)Cc2cc(NC(=O)Cc3cn(C)c4ccccc34)ccc2O[C@H]1CN(C)Cc1ccc(C(F)(F)F)cc1`, inactive: 1.02.
In the case of `C[C@H](CO)N1C[C@H](C)[C@H](CN(C)Cc2ccc(C(=O)O)cc2)Oc2ccc(NC(=O)Nc3ccc(C(F)(F)F)cc3)cc2C1=O`, the relative growth is inactive: 0.955.
The value for `COc1ccc(S(=O)(=O)Nc2ccc3c(c2)C(=O)N([C@@H](C)CO)C[C@@H](C)[C@@H](CN(C)Cc2ccc(Oc4ccccc4)cc2)O3)cc1` was inactive: 0.974; that for `C[C@@H]1CCCCO[C@@H](CN(C)Cc2ccncc2)[C@H](C)CN([C@@H](C)CO)C(=O)c2cc(NC(=O)C3CCCCC3)ccc2O1` was inactive: 1.01; that for `C[C@@H]1CCCCO[C@H](CN(C)CC2CCCCC2)[C@@H](C)CN([C@H](C)CO)C(=O)c2cc(NS(=O)(=O)c3cccs3)ccc2O1` was inactive: 1.
`COc1cc(S(=O)(=O)NCCN2CCN(S(=O)(=O)c3cc(OC)c(Cl)cc3OC)CC2)c(OC)cc1Cl`: the relative growth was inactive: 0.978.
As for `C[C@H](CO)N1C[C@H](C)[C@@H](CN(C)C(=O)Nc2ccc3c(c2)OCO3)OCCCC[C@H](C)Oc2ccc(NC(=O)Nc3ccc4c(c3)OCO4)cc2C1=O`, the relative growth was inactive: 1.01.
Turning to `C[C@@H]1CCCCO[C@@H](CN(C)C(=O)Nc2ccc(F)cc2)[C@H](C)CN([C@H](C)CO)C(=O)c2cc(NS(=O)(=O)c3ccccc3)ccc2O1`, the relative growth is inactive: 1.02.
To `Cn1c(NCCN(CCO)CCCc2ccc([N+](=O)[O-])cc2)cc(=O)n(C)c1=O` belongs inactive: 1.03; to `CO[C@H]1CN(C)C(=O)c2ccc(NS(=O)(=O)CC(F)(F)F)cc2OC[C@@H](C)N(Cc2nccs2)C[C@@H]1C`, inactive: 0.976; to `CN(C)C1C(O)=C(C(N)=O)C(=O)C2(O)C(O)=C3C(=O)c4c(O)cccc4C(C)(O)C3C(O)C12.Cl` (stereo not drawn), active: 0.0578.
As for `C[C@H]1CCCCO[C@H](CN(C)C(=O)Nc2ccccc2)[C@@H](C)CN([C@@H](C)CO)C(=O)c2cc(NC(=O)CCC(F)(F)F)ccc2O1`, the relative growth is inactive: 0.991.
To `C[C@@H]1CCCCO[C@H](CN(C)C(=O)Nc2ccc(C(F)(F)F)cc2)[C@H](C)CN([C@@H](C)CO)C(=O)c2cc(NC(=O)NC3CCCCC3)ccc2O1` belongs inactive: 1; to `COc1ccc(S(=O)(=O)N(C)C[C@@H]2Oc3c(NC(=O)c4cnccn4)cccc3C(=O)N([C@H](C)CO)C[C@H]2C)cc1`, inactive: 0.99; to `C[N+](C)(C)CCCC[C@@H]1NC(=O)[C@@H]2C[C@H](C(=O)NCc3ccc(F)cc3)[C@H](c3ccc(O)cc3)N2C1=O`, inactive: 0.986.
`C[C@@H]1CN([C@@H](C)CO)S(=O)(=O)c2ccc(C#CC3CC3)cc2O[C@H]1CN(C)Cc1ccc(F)cc1`: the relative growth is inactive: 1.01.
